# The list shows a part of the results.
# B1: Surfactant Protein D (Human); Neck + Carbohydrate Recognition Domain (NCRD) (Homo sapiens) (protein)
# chain: MLLFLLSALVLLTQPLGYLEAEMKTYSHRTMPSACTLVMCSSVESGLPGRDRDGREGPRGEKGDPGLPGAAGQAGMPGQAGPVGPKGDNGSVGEPGPKGDTGPSGPPGPPGVPGPAGREGALGKQGNIGPQGKPGPKGEAGPKGEVGAPGMQGSAGARGLAGPKGERGVPGERGVPGNTGAAGSAGAMGPQGSPGARGPPGLKGDKGIPGDKGAKGESGLPDVASLRQQVEALQGQVQHLQAAFSQYKKVELFPNGQSVGEKIFKTAQFVKPFTEAQLLCTQAGGQLASPRSAAENAALQQLVVAKNEAAFLSMTDSKTEGKFTYPTGESLVYSNWAPGEPNDDGGSEDCVEIFTNGKWNDVACGEKRLVVCEF
# How the values were obtained:
# Test in all cases: glycan array binding signal (z-score within array); higher = stronger binding
# Settings in all cases: glycan notation: IUPAC condensed, linker removed; mutation: R343V
# [1] = biological target: Gal(b1-4)GlcNAc(b1-3)Gal(b1-4)GlcNAc(b1-3)Gal(b1-4)GlcNAc
# Summary of the method: (§1)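 The binding signal is a Z-score computed within each array. Data were drawn from 3228 arrays in the Consortium for Functional Glycomics database, restricted to those with a known protein sequence. Scores were averaged over arrays of the same protein sequence at different concentrations or buffers, and over linkers, and negative values can be taken as non-binding.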
# [2] = biological target: Gal(b1-4)GlcNAc(b1-3)Gal(b1-4)[Fuc(a1-3)]GlcNAc(b1-3)Gal(b1-4)[Fuc(a1-3)]GlcNAc
# Summary of the method: as §1
# [3] = biological target: Gal(b1-4)GlcNAc(b1-3)GalNAc
# Summary of the method: as §1
# [4] = biological target: Gal(b1-4)GlcNAc(b1-3)[Gal(b1-4)GlcNAc(b1-6)]Gal(b1-4)GlcNAc
# Summary of the method: as §1
# [5] = biological target: Gal(b1-4)GlcNAc(b1-3)[GlcNAc(b1-6)]Gal(b1-4)GlcNAc
# Summary of the method: as §1
# [6] = biological target: Gal(b1-4)GlcNAc(b1-6)Gal(b1-4)GlcNAc
# Summary of the method: as §1
# [7] = biological target: Gal(b1-4)GlcNAc(b1-6)Gal(b1-4)GlcNAc(b1-6)GalNAc
# Summary of the method: as §1
# [8] = biological target: Gal(b1-4)GlcNAc(b1-6)GalNAc
# Summary of the method: as §1
# [9] = biological target: Gal(b1-4)GlcNAc(b1-6)[Gal(b1-3)]GalNAc
# Summary of the method: as §1
# Gal3S(b1-3)GalNAc = biological target: Gal3S(b1-3)GalNAc
# Summary of the method: as §1
# Gal3S(b1-3)GlcNAc = biological target: Gal3S(b1-3)GlcNAc
# Summary of the method: as §1
# [10] = biological target: Gal3S(b1-3)[Fuc(a1-4)]GlcNAc
# Summary of the method: as §1
# Gal3S(b1-4)Glc = biological target: Gal3S(b1-4)Glc
# Summary of the method: as §1
# Gal3S(b1-4)Glc6S = biological target: Gal3S(b1-4)Glc6S
# Summary of the method: as §1
# Gal3S(b1-4)GlcNAc = biological target: Gal3S(b1-4)GlcNAc
# Summary of the method: as §1
# Gal3S(b1-4)GlcNAc6S = biological target: Gal3S(b1-4)GlcNAc6S
# Summary of the method: as §1
# [11] = biological target: Gal3S(b1-4)[Fuc(a1-3)]Glc
# Summary of the method: as §1
# Gal3S4S(b1-4)GlcNAc = biological target: Gal3S4S(b1-4)GlcNAc
# Summary of the method: as §1
# Gal3S6S(b1-4)GlcNAc = biological target: Gal3S6S(b1-4)GlcNAc
# Summary of the method: as §1
# Gal3S6S(b1-4)GlcNAc6S = biological target: Gal3S6S(b1-4)GlcNAc6S
# Summary of the method: as §1
# Gal4S(b1-4)GlcNAc = biological target: Gal4S(b1-4)GlcNAc
# Summary of the method: as §1
# Gal4S6S(b1-4)GlcNAc = biological target: Gal4S6S(b1-4)GlcNAc
# Summary of the method: as §1
# Gal6S(b1-4)Glc = biological target: Gal6S(b1-4)Glc
# Summary of the method: as §1
# Gal6S(b1-4)Glc6S = biological target: Gal6S(b1-4)Glc6S
# Summary of the method: as §1
# Gal6S(b1-4)GlcNAc = biological target: Gal6S(b1-4)GlcNAc
# Summary of the method: as §1
# Gal6S(b1-4)GlcNAc6S = biological target: Gal6S(b1-4)GlcNAc6S
# Summary of the method: as §1
# GalNAc(a1-3)Gal = biological target: GalNAc(a1-3)Gal
# Summary of the method: as §1
# GalNAc(a1-3)GalNAc = biological target: GalNAc(a1-3)GalNAc
# Summary of the method: as §1
# GalNAc(b1-3)Gal = biological target: GalNAc(b1-3)Gal
# Summary of the method: as §1
# [12] = biological target: GalNAc(b1-3)Gal(a1-4)Gal(b1-4)GlcNAc
# Summary of the method: as §1
# GalNAc(b1-3)GalNAc = biological target: GalNAc(b1-3)GalNAc
# Summary of the method: as §1
# GalNAc(b1-4)GlcNAc = biological target: GalNAc(b1-4)GlcNAc
# Summary of the method: as §1
# Glc(a1-4)Glc = biological target: Glc(a1-4)Glc
# Summary of the method: as §1
# Glc(a1-6)Glc(a1-6)Glc = biological target: Glc(a1-6)Glc(a1-6)Glc
# Summary of the method: as §1
# Glc(b1-4)Glc = biological target: Glc(b1-4)Glc
# Summary of the method: as §1
# Glc(b1-6)Glc = biological target: Glc(b1-6)Glc
# Summary of the method: as §1
# GlcA(b1-3)Gal = biological target: GlcA(b1-3)Gal
# Summary of the method: as §1
binder,measurement,setting,value
B1,glycan array binding signal (z-score),[1],-0.442
same,glycan array binding signal (z-score),[2],-0.362
same,glycan array binding signal (z-score),[3],-0.594
same,glycan array binding signal (z-score),[4],-0.488
same,glycan array binding signal (z-score),[5],-0.407
same,glycan array binding signal (z-score),[6],-0.496
same,glycan array binding signal (z-score),[7],-0.392
same,glycan array binding signal (z-score),[8],-0.546
same,glycan array binding signal (z-score),[9],-0.555
same,glycan array binding signal (z-score),Gal3S(b1-3)GalNAc,-0.355
same,glycan array binding signal (z-score),Gal3S(b1-3)GlcNAc,-0.225
same,glycan array binding signal (z-score),[10],-0.178
same,glycan array binding signal (z-score),Gal3S(b1-4)Glc,-0.335
same,glycan array binding signal (z-score),Gal3S(b1-4)Glc6S,-0.317
same,glycan array binding signal (z-score),Gal3S(b1-4)GlcNAc,-0.354
same,glycan array binding signal (z-score),Gal3S(b1-4)GlcNAc6S,-0.266
same,glycan array binding signal (z-score),[11],-0.385
same,glycan array binding signal (z-score),Gal3S4S(b1-4)GlcNAc,-0.325
same,glycan array binding signal (z-score),Gal3S6S(b1-4)GlcNAc,-0.329
same,glycan array binding signal (z-score),Gal3S6S(b1-4)GlcNAc6S,-0.189
same,glycan array binding signal (z-score),Gal4S(b1-4)GlcNAc,-0.246
same,glycan array binding signal (z-score),Gal4S6S(b1-4)GlcNAc,-0.307
same,glycan array binding signal (z-score),Gal6S(b1-4)Glc,-0.379
same,glycan array binding signal (z-score),Gal6S(b1-4)Glc6S,-0.394
same,glycan array binding signal (z-score),Gal6S(b1-4)GlcNAc,-0.272
same,glycan array binding signal (z-score),Gal6S(b1-4)GlcNAc6S,-0.371
same,glycan array binding signal (z-score),GalNAc(a1-3)Gal,-0.511
same,glycan array binding signal (z-score),GalNAc(a1-3)GalNAc,-0.455
same,glycan array binding signal (z-score),GalNAc(b1-3)Gal,-0.55
same,glycan array binding signal (z-score),[12],-0.526
same,glycan array binding signal (z-score),GalNAc(b1-3)GalNAc,0.991
same,glycan array binding signal (z-score),GalNAc(b1-4)GlcNAc,-0.51
same,glycan array binding signal (z-score),Glc(a1-4)Glc,0.852
same,glycan array binding signal (z-score),Glc(a1-6)Glc(a1-6)Glc,-0.515
same,glycan array binding signal (z-score),Glc(b1-4)Glc,-0.032
same,glycan array binding signal (z-score),Glc(b1-6)Glc,-0.022
same,glycan array binding signal (z-score),GlcA(b1-3)Gal,-0.453
